Whole data set: some 33,000 sequences, median “E-score (-0.5 to 0.5)” near -0.053, cut for the highest 2% near 0.37. This is one part of the list.
The sequences below were run against Hap1 (UniProt P0CE41) (assay: PBM E-score (8-mer binding enrichment) (E-score (-0.5 to 0.5)); higher = stronger / more preferred TF binding; most listed sequences are background and not binding sites). Settings: protein concentration: 200 nM; construct: GST-DNA-binding domain.
Procedure, shortened: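 Yeast transcription factors, full-length or as DNA-binding domains, were expressed with a GST tag using PURExpress in vitro transcription/translation. At about 100-200 nM they were applied to universal all-10-mer Agilent arrays, double-stranded by primer extension on fresh or once-stripped slides. Fluorescent anti-GST detected bound protein, and masliner normalised the scans. E-scores for ungapped eight-base words, pooled with reverse complements, came from the Universal PBM Analysis Suite.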

Chain of UniProt P0CE41 (P0CE41 whole entry, the tested form may be a part): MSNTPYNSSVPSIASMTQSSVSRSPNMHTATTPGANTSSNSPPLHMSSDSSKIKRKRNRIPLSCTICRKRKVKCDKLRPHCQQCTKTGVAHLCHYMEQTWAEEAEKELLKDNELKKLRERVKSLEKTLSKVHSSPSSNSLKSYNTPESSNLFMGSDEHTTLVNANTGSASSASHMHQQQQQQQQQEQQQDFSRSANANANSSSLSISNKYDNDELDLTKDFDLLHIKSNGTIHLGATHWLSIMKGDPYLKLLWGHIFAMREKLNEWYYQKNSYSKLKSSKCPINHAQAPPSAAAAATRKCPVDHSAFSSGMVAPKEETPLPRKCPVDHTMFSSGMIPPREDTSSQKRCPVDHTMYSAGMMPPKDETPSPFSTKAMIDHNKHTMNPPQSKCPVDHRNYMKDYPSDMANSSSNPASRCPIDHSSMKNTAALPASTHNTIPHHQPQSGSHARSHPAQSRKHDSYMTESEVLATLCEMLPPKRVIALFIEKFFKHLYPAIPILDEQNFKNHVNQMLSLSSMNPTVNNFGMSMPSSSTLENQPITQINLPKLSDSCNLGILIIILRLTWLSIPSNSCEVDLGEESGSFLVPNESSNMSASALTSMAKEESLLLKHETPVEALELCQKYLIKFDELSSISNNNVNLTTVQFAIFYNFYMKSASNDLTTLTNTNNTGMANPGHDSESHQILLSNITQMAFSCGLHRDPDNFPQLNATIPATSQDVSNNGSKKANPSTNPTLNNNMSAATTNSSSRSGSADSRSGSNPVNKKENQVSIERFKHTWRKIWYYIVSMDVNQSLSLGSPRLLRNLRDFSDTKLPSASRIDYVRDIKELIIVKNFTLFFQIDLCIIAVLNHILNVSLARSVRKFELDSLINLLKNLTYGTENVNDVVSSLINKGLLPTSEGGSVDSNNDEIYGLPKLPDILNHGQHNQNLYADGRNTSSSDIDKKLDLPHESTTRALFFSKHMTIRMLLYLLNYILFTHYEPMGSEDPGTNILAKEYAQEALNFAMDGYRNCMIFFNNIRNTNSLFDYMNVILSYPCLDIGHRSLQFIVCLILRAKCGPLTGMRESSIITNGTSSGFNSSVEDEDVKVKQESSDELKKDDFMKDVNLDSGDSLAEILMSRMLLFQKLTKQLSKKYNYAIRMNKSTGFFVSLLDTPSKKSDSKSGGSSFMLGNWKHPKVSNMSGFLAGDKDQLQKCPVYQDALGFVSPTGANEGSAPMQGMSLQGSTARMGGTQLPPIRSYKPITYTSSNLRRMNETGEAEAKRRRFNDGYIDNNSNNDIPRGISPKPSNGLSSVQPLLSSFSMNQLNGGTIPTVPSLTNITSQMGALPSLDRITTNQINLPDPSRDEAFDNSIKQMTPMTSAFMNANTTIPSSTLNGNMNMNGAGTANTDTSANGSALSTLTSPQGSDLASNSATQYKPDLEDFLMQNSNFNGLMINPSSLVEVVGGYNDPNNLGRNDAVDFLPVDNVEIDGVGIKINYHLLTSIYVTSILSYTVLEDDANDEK

Row | Sequence | PBM E-score
1 | AGCAAGCC | -0.0878
2 | CAAACGAA | -0.26
3 | ATGAGGTC | -0.159
4 | AGTGGTCA | -0.0959
5 | CCACCCGG | 0.254
6 | AACAAACT | -0.148
7 | ACTCAAAG | -0.154
8 | CCCAGTCA | -0.241
9 | CCGGATCC | 0.328
10 | CAGCGGTC | 0.0849
11 | ACTTCCGG | 0.382
12 | AAGGGAGC | -0.167
13 | ACCTGAAA | -0.165
14 | AAGCATGT | -0.0879
15 | GATAAAGC | 0.151
16 | GTAGTCGA | -0.148
17 | AGTACATG | -0.108
18 | ACCTGACA | -0.0727
19 | GGGTGTAC | 0.15
20 | ATTACTGG | -0.259
21 | ACTATGTG | -0.0936
22 | GCACCTTA | -0.02
23 | CAGGATTC | -0.0563
24 | AGCGCAGG | 0.00092
25 | CGGCCACG | 0.0529

Row | Sequence | PBM E-score
26 | CGATCACG | 0.122
27 | CGCGAAGC | 0.15
28 | ACAGTCTC | -0.197
29 | CGGACTAC | 0.332
30 | CAGCAGGC | -0.0374
31 | ACTTAGAG | -0.367
32 | ATCCTACC | -0.0802
33 | CTCGCAGA | -0.226
34 | AGCCGGTG | 0.326
35 | AGGTGATC | -0.151
36 | GAGGGTAC | -0.123
37 | ACGTCCAT | -0.149
38 | ACTAATGA | -0.0636
39 | GGAATTGA | 0.263
40 | TCCGCTCA | 0.0724
41 | ATTGAAAC | -0.0236
42 | ACGTATTA | 0.162
43 | GGGTTACA | 0.0182
44 | CACTCGTA | -0.124
45 | CCTACGTA | -0.223
46 | CTGGATCA | -0.161
47 | AAATGGCG | 0.00353
48 | CGAATTCA | 0.144
49 | TAGAACTA | -0.157
50 | CGGCAATA | 0.408

Row | Sequence | PBM E-score
51 | AGCCAGGC | -0.141
52 | ATCGGTTG | 0.231
53 | ATGAGGCG | 0.0542
54 | ACGATAGT | -0.242
55 | CTGGGGGC | -0.219
56 | TGATCACA | -0.16
57 | AGCAATGA | -0.0478
58 | GGAGTTCA | 0.0968
59 | AGCAACGG | 0.2
60 | CTCGACAG | -0.23
61 | AAGGAGCA | -0.168
62 | CACAATCC | 0.00608
63 | ATTTTTAG | -0.075
64 | ACTCACGA | -0.217
65 | CTGGTGTC | -0.132
66 | TCGTCGCA | -0.0994
67 | GAGCTGCC | 0.173
68 | CGGAAAGA | 0.305
69 | CCAAACTA | -0.134
70 | AACGAACT | -0.157
71 | GACACTGC | -0.153
72 | CCATAACC | -0.0952
73 | CCGTCTGC | 0.0393
74 | AAATGTCG | 0.0311
75 | AGCCAAAT | 0.114

Row | Sequence | PBM E-score
76 | TATTACAA | -0.0901
77 | ACAACGAG | -0.13
78 | ATGCGGTA | 0.173
79 | AATCTCAT | -0.118
80 | CAGTCACA | -0.418
81 | CTAGGGGA | -0.162
82 | ACACCAAA | -0.176
83 | GCTGGAAC | -0.0644
84 | GCACGTGC | 0.0623
85 | CGGATTCC | 0.356
86 | AGGTAACC | -0.0072
87 | CAGAGGTC | 0.00205
88 | CTGATTCC | -0.0536
89 | GAGGGCGA | 0.0665
90 | AAGCACGA | -0.141
91 | CACGCCAC | -0.209
92 | CGTCACGC | -0.0646
93 | AAAACAAA | 0.043
94 | AATAGTTG | -0.0245
95 | GCATTTAC | 0.0528
96 | CCCGATCC | 0.31
97 | AGTTGCCC | 0.00608
98 | AGCCCACC | 0.0883
99 | GGGAAAAA | 0.0878
100 | ACATTGAT | -0.0542

Row | Sequence | PBM E-score
101 | CGAGGAGA | -0.00186
102 | ACAGCGCG | 0.0018
103 | ATCTGTGC | -0.14
104 | AAGGCAAG | -0.183
105 | AGGAAGTC | -0.292
106 | AAGTCAGT | -0.0893
107 | CGCGCCTC | 0.114
108 | AGTAATGA | -0.0848
109 | GCCCGACC | 0.186
110 | AGTAGATA | -0.0313
111 | CTAGGGTA | -0.221
112 | ACCTCGAC | -0.183
113 | GTTCCAAA | -0.109
114 | AATCGGTG | 0.128
115 | AATAGCAG | -0.0813
116 | AGGACACC | -0.00126
117 | ATTCTATC | -0.0566
118 | GATCATGC | -0.0933
119 | AATAAACA | 0.0458
120 | AGGTGGGA | -0.0974
121 | GGCATATA | 0.0598
122 | ACCGCTGA | 0.0609
123 | CCAAACGC | -0.107
124 | TGGGTAAA | -0.136
125 | AATGGGAG | -0.101

Row | Sequence | PBM E-score
126 | CGGCGACA | 0.23
127 | ACGTTGTG | -0.142
128 | GAGAAATC | 0.0472
129 | ACGTCTCC | -0.0704
130 | GACTCCGA | 0.301
131 | GCCGACAA | 0.278
132 | ATCTTTGA | -0.0915
133 | CTTCAGCA | -0.327
134 | GTCTTGAA | -0.175
135 | AAGACTAG | -0.353
136 | AAGCCCGT | 0.232
137 | TAAAAACA | -0.165
138 | GCACAGCC | 0.0918
139 | ACCCGATG | 0.3
140 | CGGAACCG | 0.295
141 | CCTTCCCC | 0.108
142 | CGTAACCA | -0.19
143 | ACACCAGA | -0.0818
144 | AAACGTTA | -0.0942
145 | CCAAGGGC | -0.212
146 | CACGAGAG | -0.128
147 | AATGGGAT | -0.019
148 | GACCTGAA | 0.0636
149 | TCAGCTAA | -0.21
150 | CTAATCTC | -0.00409

Row | Sequence | PBM E-score
151 | CGCATGTC | -0.0848
152 | GATACATA | 0.059
153 | AAAGTGGG | 0.0026
154 | AATTATAT | 0.0596
155 | AGAACAAA | -0.00064
156 | CGCGCGAG | 0.169
157 | CAGCTAGC | -0.145
158 | TTTAGAAA | 0.0499
159 | CGATCTCC | 0.216
160 | CGGTTTAC | 0.105
161 | AGTCCTGA | -0.273
162 | GCTCTATA | -0.0872
163 | AATGGACT | -0.163
164 | CTGACTGA | -0.221
165 | ATGATGGG | -0.116
166 | AGTGCCGG | 0.362
167 | AACCGTGT | -0.0449
168 | ACGAGACG | -0.13
169 | AAACCCAT | 0.14
170 | GTTTGCCA | -0.165
171 | CACTAAGC | -0.178
172 | AGCTTGAT | -0.287
